Assay results published in PubChem BioAssay AID1240 (Sanford-Burnham Center for Chemical Genomics, 2008).
The whole screen tested about 50,000 compounds, of which about 800 (1.6%) showed an effect of 50% or more. This is one part of the list.

These compounds were tested against Bcl-2-like protein 10 (Homo sapiens) (UniProt Q9HD36) (assay: TR3 peptide-Bcl-B binding displacers, biochemical primary FP assay, phenotype converters (AID 1240;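 also: 0% = Bcl-B with tracer peptide and DMSO and 100% = tracer peptide lacking Bcl-B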)). Conditions: GST-Bcl-B / FITC-TR3 peptide fluorescence polarization; stronger effect = higher value; compound at 3.75 mg/L.
UniProt Q9HD36, sequence (Q9HD36 whole entry, looked up): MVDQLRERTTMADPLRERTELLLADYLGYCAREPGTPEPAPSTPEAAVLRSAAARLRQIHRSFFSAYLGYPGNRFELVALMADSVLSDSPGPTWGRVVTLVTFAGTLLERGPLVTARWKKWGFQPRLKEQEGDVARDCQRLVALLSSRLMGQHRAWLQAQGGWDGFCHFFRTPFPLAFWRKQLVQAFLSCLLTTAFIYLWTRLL
With `O=C1NC(c2ccccc2OCc2ccccc2)Nc2sc3c(c21)CCCC3` (stereo not drawn) the displacement was -4.7%. In the case of `COc1cccc(C(=O)OC2CC(C)N(C)CC2C)c1` (stereo not drawn), the displacement is reported as -12.2%. `CC(C)CC(Nc1c(C(=O)Nc2ccc(Cl)cc2)cc([N+](=O)[O-])cc1[N+](=O)[O-])C(=O)O` (stereo not drawn) gave a displacement of 21.4%. With `Cn1c(SCC(=O)N/N=C/c2cccc(OCc3ccccc3)c2)nc2ccccc21` the displacement was -2.4%. For `COc1cccc(/C=C2\N=C(c3ccccc3OC)OC2=O)c1`, the displacement was -6%. `COc1ccc(C(=O)/C=C/c2ccccc2F)cc1OC` was tested, and the displacement was 5.2%. `COCC(=O)Nc1ccc(F)cc1F` gave a displacement of -5.1%. In the case of `CCCc1noc(-c2ccc(-c3ccc(CC)cc3)cc2)n1`, the displacement is reported as -8.7%. With `Cc1oc2ccc(OCc3ccc(Cl)cc3)cc2c1C(=O)O` the displacement was 6.3%. For `CCc1nnc(NC(=O)/C=C/c2ccc3c(c2)OCO3)s1`, the displacement was 29.4%. With `O=[N+]([O-])c1ccc(-c2nnc(-c3ccccc3I)o2)cc1` the displacement was 3.7%. In the case of `Cc1ccc(OCC(=O)NNC(=O)c2cccc(O)c2)c(C)c1`, the displacement is reported as -2.4%. With `CN1CCN(C(=O)c2ccc([N+](=O)[O-])cc2Cl)CC1` the displacement was -9.7%. Work on `O=C(NCC1CCNCC1)C(=O)NC1CCCCC1` yielded a displacement of -8.1%. `CCc1ccc(-c2[nH]c(=S)[nH]c(=O)c2C#N)cc1` was tested, and the displacement was -7.3%. In the case of `CCOC(=O)c1sc(Nc2ccc(Br)cc2)nc1-c1ccccc1`, the displacement is reported as 4.3%. Compound `C=CCNC(=O)CN(c1cccc(C(F)(F)F)c1)S(C)(=O)=O` has a displacement of 3.1%. `CCOc1ccc(NS(=O)(=O)Cc2ccccc2)cc1` was tested, and the displacement was 5.4%. `Cc1c(C(=O)Nc2ccc3oc(-c4ccc(Cl)cc4Cl)nc3c2)cccc1[N+](=O)[O-]` showed a displacement of -5.8%. In the case of `COc1cccc(C2NC(=O)NC(C)=C2C(=O)Nc2ccccc2OC)c1` (stereo not drawn), the displacement is reported as -15.5%. `Cc1ccc(N(CC(=O)NCCCC(C)(C)C2OCCO2)S(=O)(=O)c2ccc(F)cc2)cc1` gave a displacement of 3.9%. For `COc1ccc(S(=O)(=O)N2CCN(Cc3cc(OC)c(OC)cc3OC)CC2)cc1`, the displacement was -4.4%. `COc1ccc(-n2nc3ccc(NC(=O)Cc4ccccc4)cc3n2)cc1` was tested, and the displacement was 5.1%. Work on `COC(OC)C12c3ccccc3C(c3ccccc31)C1C(=O)N(Cc3cccnc3)C(=O)C12` (stereo not drawn) yielded a displacement of -5.7%. With `Cc1onc(-c2ccccc2Cl)c1C(=O)Nc1sc(C)c(C)c1C#N` the displacement was 13.6%. Work on `O=C(NCCCn1ccnc1)c1ccc([N+](=O)[O-])cc1Cl` yielded a displacement of -8%. `O=C1NN(c2ccc(Cl)c(Cl)c2)C(=O)/C1=C/c1cccs1` showed a displacement of -0.3%. `COc1cc(C(=O)Nc2ccccc2OC(C)C)cc(OC)c1OC` showed a displacement of 12%. Work on `O=C(c1ccc(F)cc1)N1CCN(C2CCN(Cc3ccccc3)CC2)CC1` yielded a displacement of -3.3%. Work on `Cc1nc2c(C)c(-c3ccccc3)nn2c(C)c1Cl` yielded a displacement of -1%. Work on `CCN1C(=O)/C(=C/c2cc(OC)c(O)c(OC)c2)C(=O)NC1=S` yielded a displacement of 11.6%. With `COc1ccc(NC2=C(C(=O)C(F)(F)F)CCCC2)cc1OC` the displacement was 12.2%. `CCc1ccc(NC(=O)c2ccc(C(C)C)cc2)cc1` showed a displacement of -0.7%. `CC(=O)NC(NS(=O)(=O)c1ccccc1)(C(F)(F)F)C(F)(F)F` gave a displacement of -8.9%. With `Cn1c(=O)c(C(=O)Nc2ccccc2O)c(O)c2ccccc21` the displacement was 5.1%. Work on `CCOc1cc(C2C3=C(CC(C)(C)CC3=O)Nc3ccccc3N2C(=O)c2ccccc2)ccc1O` (stereo not drawn) yielded a displacement of -11.1%. `CCCOc1ccc(-c2ccc(-c3noc(CCC)n3)cc2)cc1` was tested, and the displacement was -20.2%. With `Cc1cc(Cl)cc(SCC(=O)O)c1Cl` the displacement was -4.6%. `Cc1ccc(/C(N)=N/OC(=O)COc2ccccc2)cc1` showed a displacement of 11.9%. Work on `CCCc1nc2c(C)cc(C)cc2c(N)c1CC` yielded a displacement of -19.4%. `O=C(NNC(=O)C(c1ccccc1)c1ccccc1)c1ccc(Cl)cc1` showed a displacement of -7.4%. For `CCOC(=O)C(C#N)C1(c2ccc(C)cc2)CCOC(C)(CC)C1` (stereo not drawn), the displacement was -5.7%. Compound `CCOc1ccc(NC(=O)C2CC3c4ccccc4C2c2ccccc23)cc1` (stereo not drawn) has a displacement of 2.6%. Work on `CCCN(CCC)C(=O)c1ccccc1` yielded a displacement of 9.1%. `Brc1cc2c(cc1/C=N/Nc1nc3ccccc3s1)OCO2` gave a displacement of 0%. `O=C(Nc1ncc(Cc2ccc(F)cc2)s1)C1CCCCC1` was tested, and the displacement was -5.4%. `COc1ccc(C(=O)OCC(=O)c2ccc(Br)cc2)cc1OC` showed a displacement of 2.8%. `CC(NC(=O)CN1C(=O)c2ccccc2C1=O)c1ccccc1` (stereo not drawn) was tested, and the displacement was 0.3%. For `CC1(C)CC(=O)C2=C(C1)Nc1ccccc1NC2c1cccc(F)c1` (stereo not drawn), the displacement was -0.2%. `O=S(=O)(NNc1nc(-c2ccccc2)c2cc(Cl)ccc2n1)c1ccccc1` showed a displacement of -3.8%. With `COc1cc(NC(=O)c2cc3nc(-c4ccccc4)cc(C)n3n2)c(OC)cc1Cl` the displacement was -12.8%. In the case of `CCN(CC)C(=O)C12CC3CC(C1)C(=O)C(C3)C2`, the displacement is reported as -1.5%. With `COc1ccc(N(CC(=O)Nc2ccc(OC)cc2OC)S(C)(=O)=O)cc1` the displacement was 1.7%. In the case of `O=C(/C=C/c1ccc(F)cc1)c1ccccc1O`, the displacement is reported as -0.8%. `COc1ccc(N2C(=O)CC(Cc3ccc(Cl)cc3)C2=O)cc1` (stereo not drawn) showed a displacement of 10.4%. Work on `Cc1ccc(S(=O)(=O)N/N=C/c2cccc(OS(=O)(=O)c3ccc([N+](=O)[O-])cc3)c2)cc1` yielded a displacement of 9.8%. Work on `CCOC(=O)CNC(=O)c1cc(-c2ccccc2)nc2ccccc12` yielded a displacement of -1%. `CC(C)(C)c1ccc(C(=O)Nc2ccc(NC(=O)c3ccccc3[N+](=O)[O-])cc2)cc1` was tested, and the displacement was -0.4%. For `Cn1ncc(Cl)c1C(=O)N(C(=O)c1c(Cl)cnn1C)c1ccccn1`, the displacement was -2.6%. For `COc1ccc(C2Nc3ccccc3NC3=C2C(=O)CC(c2ccc(Cl)cc2)C3)c(OC)c1OC` (stereo not drawn), the displacement was 5.1%. `CCCOc1ccc(C(=O)N2CCC(C)CC2)cc1` gave a displacement of 5.7%. Work on `CCc1ccc(NC(=O)CC2Nc3ccccc3NC2=O)cc1` (stereo not drawn) yielded a displacement of -35.7%. `CCCN(CCC)C(=O)c1c(NC(=O)c2ccccc2Cl)sc2c1CCCC2` was tested, and the displacement was 7.1%. `COc1ccc2oc(-c3cccc(Br)c3)cc(=O)c2c1` was tested, and the displacement was -8.1%. `CC(=O)c1cccc(N=Cc2cc(Br)cc(Br)c2O)c1` gave a displacement of 25.8%. For `O=c1c2ccccc2c(-c2ccccc2)nn1CCc1ccccc1`, the displacement was -10.1%. Compound `CC(C)Oc1cccc(C(=O)Nc2ccc(F)c([N+](=O)[O-])c2)c1` has a displacement of 17.9%. Compound `CC(=O)c1c(C)nc(-c2ccccc2)nc1NC(=O)C(C)C` has a displacement of 10.6%. With `COC(=O)c1sccc1NC(=O)c1ccc(OCC(C)C)cc1` the displacement was 2.1%. In the case of `CC(=O)N1CCN(c2ccc(Cl)cc2[N+](=O)[O-])CC1C` (stereo not drawn), the displacement is reported as 6.8%. `CC(C)OC(=O)N1C2C=CC(C2)C1(C(F)(F)F)C(F)(F)F` (stereo not drawn) was tested, and the displacement was -9.2%. `Cc1ccc(NC(=O)c2ccc(Oc3ccc([N+](=O)[O-])cc3)cc2)cc1C` gave a displacement of -1.8%. `Cc1ccccc1C(=O)NN1C(=O)/C(=C/c2cccc(OCc3ccccc3)c2)SC1=S` was tested, and the displacement was -43.3%. With `Cc1ccc(NC(=O)N2CCOCC2)cc1` the displacement was -7.5%. In the case of `COc1cc(/C=C(\C#N)C(=O)c2ccccc2)cc(OC)c1OC`, the displacement is reported as -5.6%. In the case of `O=C(N/N=C/c1ccc([N+](=O)[O-])o1)c1ccc(C(F)(F)F)cc1`, the displacement is reported as 0.1%. `CCCC1(O)C(C)C(c2ccccc2)NC(c2ccccc2)C1C` (stereo not drawn) showed a displacement of -4.1%. Work on `O=C(Cc1ccc([N+](=O)[O-])cc1)Nc1ccc(Cl)c(C(F)(F)F)c1` yielded a displacement of -6.1%. `CCOC(=O)C(CC#CCN(C)C)(CC#CCN(C)C)C(=O)OCC` showed a displacement of 6.1%. `CC(C)OC(=O)C(=O)/C=C1\NC(C)(C)Cc2ccccc21` gave a displacement of 6%. `COc1cc(OC)c(C2NC(=S)NC(C)=C2C(=O)Nc2cccc(Cl)c2)cc1OC` (stereo not drawn) showed a displacement of -3.1%. In the case of `O=C1C(=O)N(Cc2ccccc2)C2C=CC=CC12` (stereo not drawn), the displacement is reported as -2.3%. `CCCc1ccc(OCc2nnc(NC(=O)Nc3cccc(Cl)c3)s2)cc1` was tested, and the displacement was 4.5%. `CCOC(=O)c1sc(NC(=O)c2ccccc2[N+](=O)[O-])nc1C` gave a displacement of -0.6%. `O=c1oc(-c2cccc([N+](=O)[O-])c2)nc2ccc(Br)cc12` was tested, and the displacement was 24.5%. Compound `CCOc1nc(-c2ccccc2)c2cc(C)ccc2n1` has a displacement of 45.2%. Compound `COc1ccc(N2C(=O)/C(=C3/C(=O)N(C)c4ccccc43)SC2=S)cc1` has a displacement of -6.1%. In the case of `O=C(NCCc1ccc(F)cc1)C(=O)NC1CC1`, the displacement is reported as 7.1%. Work on `COc1ccccc1OCC(=O)Nc1ccc(C(C)=O)cc1` yielded a displacement of 3.8%. `O=C1N/C(=N\Nc2ccc([N+](=O)[O-])cc2)S/C1=C/c1ccccc1` showed a displacement of -25.2%. Work on `C/C(=N\O)c1ccc2c3c([nH]c2c1)CCCC3` yielded a displacement of 34.2%. Compound `Cc1cc(C)cc(NC(=O)CSc2nc(C)cc(C)n2)c1` has a displacement of 5.2%. Compound `CC(=O)Nc1ccccc1/C=C/c1ccc2c(C)cc(C)c(O)c2n1` has a displacement of 11.9%. Compound `COc1cc(NC(=O)CCc2ccccc2)cc(OC)c1` has a displacement of -2.5%. In the case of `O=C1C2=C(Nc3[nH]n(-c4ccccc4)c(=O)c3C2c2ccccc2)c2ccccc21` (stereo not drawn), the displacement is reported as 11.8%. For `CCOc1ccc(NC(=O)C(=O)NCC2CCNCC2)cc1`, the displacement was 2.8%. With `Cc1nnc(SCC(=O)Nc2ccc3c(c2)C(=O)c2ccccc2C3=O)s1` the displacement was 13.9%. `O=P(COCC1CCCO1)(c1ccccc1)c1ccccc1` (stereo not drawn) was tested, and the displacement was 15.4%. `CCOc1ccccc1N1CCN(C(=O)C(Sc2ccccc2)c2ccccc2)CC1` (stereo not drawn) was tested, and the displacement was -4.4%. For `C/C(=C(\C#N)C(=O)NC1CCCCC1)N(C)C`, the displacement was -10.8%. `CCC(Oc1ccccc1)C(=O)Nc1cccc(Br)c1` (stereo not drawn) gave a displacement of -3.8%. `CCc1ccccc1NC(=O)C(=O)NC(C)c1ccccc1` (stereo not drawn) showed a displacement of -18.2%. For `Nc1nonc1C(=O)N/N=C/c1cccc(O)c1`, the displacement was 3.6%. In the case of `COc1ccc(OC)c(NC(=O)C2CC2(c2cccc(C)c2)c2cccc(C)c2)c1` (stereo not drawn), the displacement is reported as 1.4%. `Cc1ccc(NC(=S)NC2CCCCC2)cc1` showed a displacement of 15.4%. Compound `Cc1ccc(NC(=O)COC(=O)c2ccnn2C)cc1` has a displacement of 18.4%. With `COc1ccc(S(=O)(=O)N(CC(=O)Nc2ccccc2C(F)(F)F)Cc2ccccc2)cc1OC` the displacement was 8.9%. In the case of `O=S(=O)(c1ccc(Cl)cc1)N1CCN(CCCc2ccccc2)CC1`, the displacement is reported as -7.5%. With `O=C(/C=C/c1ccccc1)NC(=S)Nc1cccc(Cl)c1` the displacement was 15.1%. For `COC(=O)C1=C(C)NC2=C(C(=O)CC(c3ccccc3)C2)C1c1ccc(Cl)cc1` (stereo not drawn), the displacement was -5.3%. `O=C(c1ccncc1)N1CCN(C2CCCCC2)CC1` showed a displacement of -3.8%. `O=C(/C=C/Nc1ccccc1F)c1ccc(Br)cc1` gave a displacement of 85.6%. With `CCOc1ccc(S(=O)(=O)Nc2ccc(Cl)cc2)cc1` the displacement was 11.1%.
